# Measured values reported in PubChem BioAssay AID1347165 (National Center for Advancing Translational Sciences (NCATS), 2019).
# Several values for one entry are separate records, joined by “and”; a condition that tells them apart may be missing. Equal values may be shown once. In all, about 220,000 compounds went through this assay and about 5,700 (2.6%) were called active. The shares of active, inactive and inconclusive entries below differ from those in the screen. Calls come from the whole dose curve; as a rule, active = well fitted inhibition curve with a large enough effect; inconclusive = small, poorly fitted or top-dose-only effect; inactive = no such curve, though single readings can be large or run the other way. A potency beside an inconclusive call is a rough fit, not a confirmed value.
# Target: Lysine-specific demethylase 5B (Homo sapiens) (UniProt Q9UGL1)
# Chain of UniProt Q9UGL1 (Q9UGL1 whole entry, looked up): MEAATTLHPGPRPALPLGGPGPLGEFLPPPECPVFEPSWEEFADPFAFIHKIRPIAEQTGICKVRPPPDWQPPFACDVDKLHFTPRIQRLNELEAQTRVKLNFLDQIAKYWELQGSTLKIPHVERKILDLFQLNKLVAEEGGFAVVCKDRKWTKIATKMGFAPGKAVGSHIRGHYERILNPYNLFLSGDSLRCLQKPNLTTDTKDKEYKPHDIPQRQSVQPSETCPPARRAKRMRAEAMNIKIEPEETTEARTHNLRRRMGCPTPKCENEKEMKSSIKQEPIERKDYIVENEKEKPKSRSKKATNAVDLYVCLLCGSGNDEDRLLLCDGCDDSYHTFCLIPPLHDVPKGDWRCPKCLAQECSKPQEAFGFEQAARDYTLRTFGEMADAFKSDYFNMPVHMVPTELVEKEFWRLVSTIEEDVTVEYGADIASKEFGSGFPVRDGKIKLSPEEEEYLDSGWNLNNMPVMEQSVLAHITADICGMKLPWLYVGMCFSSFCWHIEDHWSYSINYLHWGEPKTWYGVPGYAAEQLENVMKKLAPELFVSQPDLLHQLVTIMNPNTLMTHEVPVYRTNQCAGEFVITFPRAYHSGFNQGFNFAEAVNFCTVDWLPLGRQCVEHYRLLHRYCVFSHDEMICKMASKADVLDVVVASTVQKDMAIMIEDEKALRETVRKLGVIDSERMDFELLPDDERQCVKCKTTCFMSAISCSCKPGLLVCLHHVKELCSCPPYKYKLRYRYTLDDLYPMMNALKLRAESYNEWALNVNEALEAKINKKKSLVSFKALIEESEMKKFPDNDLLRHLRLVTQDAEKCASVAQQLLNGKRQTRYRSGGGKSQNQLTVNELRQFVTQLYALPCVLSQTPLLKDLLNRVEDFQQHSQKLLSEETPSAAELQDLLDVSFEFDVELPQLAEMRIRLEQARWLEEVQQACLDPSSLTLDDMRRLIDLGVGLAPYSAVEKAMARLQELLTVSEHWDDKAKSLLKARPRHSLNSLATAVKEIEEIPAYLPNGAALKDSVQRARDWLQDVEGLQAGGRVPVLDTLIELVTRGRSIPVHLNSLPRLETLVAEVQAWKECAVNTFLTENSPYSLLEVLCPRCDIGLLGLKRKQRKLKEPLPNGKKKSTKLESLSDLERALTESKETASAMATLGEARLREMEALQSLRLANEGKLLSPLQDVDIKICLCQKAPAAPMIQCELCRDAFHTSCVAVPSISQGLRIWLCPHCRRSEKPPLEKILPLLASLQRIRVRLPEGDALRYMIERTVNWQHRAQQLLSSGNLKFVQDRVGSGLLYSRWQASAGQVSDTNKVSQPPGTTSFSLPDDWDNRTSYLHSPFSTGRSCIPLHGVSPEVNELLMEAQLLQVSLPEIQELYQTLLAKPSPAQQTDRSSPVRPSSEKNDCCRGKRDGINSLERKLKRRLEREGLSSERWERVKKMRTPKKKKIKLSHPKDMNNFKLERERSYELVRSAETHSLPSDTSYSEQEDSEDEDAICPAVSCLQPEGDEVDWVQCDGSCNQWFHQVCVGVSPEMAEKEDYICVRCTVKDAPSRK
# Experiment: Primary screen for KDM5B Histone Demethylases FDH-coupled qHTS; note: nearly all actives have a fitted effect of over 70% in size; for activity change, negative = inhibition: 0% is about no effect
# Conditions: FDH-coupled NADH fluorescence (FDH is formaldehyde dehydrogenase); activity change, negative = inhibition: at 57.7 µM (top of the series) unless noted
# Procedure, shortened: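 Compound dilutions met 200 nM (final) KDM5BΔAP for 10 min at room temperature before substrate addition. The substrate mix held 12.5 µM H3K4me3 with cofactors 25 µM α-ketoglutarate and 50 µM Fe²⁺. NADH signal gain over 30 min defined activity.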
# Potency is the fitted concentration of half-maximal effect; tags give direction and shape of the fitted curve.
Compound,Potency,"activity change, negative = inhibition"
CCOCCCNC(=O)c1cn(CC(C)C)c(=O)c2c1c1ccccc1n2C,"inconclusive: 2.51 µM [inhibitor, full curve, poor fit]",–
Cc1ccc(C2C3=C(CC(C)(C)CC3=O)Nc3c2c(=O)n(C)c(=O)n3C)cc1 (stereo unspecified),"inconclusive: 10 µM [inhibitor, partial curve, poor fit]",–
Cc1nn(Cc2ccccc2)c(C)c1[C@@H]1C=C[C@@H](NC(=O)NC(C)C)C1,"inconclusive: 25.1 µM [inhibitor, partial curve, poor fit]",–
CCN1CCN(c2ncc3c(n2)CCN(Cc2cccc(F)c2F)C3)CC1,"inconclusive: 44.7 µM [inhibitor, single point]",–
COc1ccc(-c2nc(CS(=O)CC(=O)NCCCOC(C)C)c(C)o2)cc1OC (stereo unspecified),"inconclusive: 39.8 µM [inhibitor, single point]",–
CCCc1cc(C(=O)N[C@H](c2ccccn2)C2CC(O)C2)cs1 (stereo partly specified),–,inactive: 28.5%
COc1ccccc1Nc1nc(N)nc(N)c1S(=O)(=O)c1ccccc1,"inconclusive: 35.5 µM [inhibitor, partial curve, poor fit]",–
N[C@H]1CCN2C(=O)c3cc(-c4ccc(Cl)cc4)ccc3NC(=O)[C@@H]2C1,"inconclusive: 31.6 µM [inhibitor, partial curve]",–
Cc1oc2cc(OCC(=O)NC(C)c3cccs3)ccc2c(=O)c1Oc1ccccc1 (stereo unspecified),"inconclusive: 20 µM [inhibitor, partial curve, poor fit]",–
O=C(C1CCOCC1)N1CC(CO)C2(CCNCC2)C1 (stereo unspecified),"inconclusive: 31.6 µM [inhibitor, partial curve, poor fit]",–
CSc1ccc(/C=C/c2nc3ccccc3n2S(=O)(=O)c2ccc(Br)cc2)cc1,"inconclusive: 39.8 µM [inhibitor, partial curve, poor fit]",–
Fc1ccc(Cc2nc3nccc(-c4ccc5c(c4)OCCCO5)n3n2)cc1,"inconclusive: 15.8 µM [inhibitor, partial curve, poor fit]",–
O=C(OCc1ccc(F)cc1)c1ccc(C2Nc3ccccc3S(=O)(=O)N2)cc1 (stereo unspecified),"inconclusive: 22.4 µM [inhibitor, single point]",–
C=CCn1cc2c3c(cccc31)[C@H](CC(C)C)N[C@H](C(=O)NCCN1CCOCC1)C2,"inconclusive: 25.1 µM [inhibitor, partial curve, poor fit]",–
Cc1ccc(-c2c3c(=O)n(C)c(=O)n(C)c3c3cnc4ccccc4n23)cc1,"inconclusive: 17.8 µM [inhibitor, partial curve, poor fit]",–
CCOC(=O)c1ccc(Nc2nc(-c3ccccc3)no2)cc1,"inconclusive: 35.5 µM [inhibitor, single point]",–
Cn1cc(-c2cnc3[nH]cc(CC(=O)NCC4CCOCC4)c3c2)cn1,"inconclusive: 39.8 µM [inhibitor, partial curve, poor fit]",–
CSc1ccc(C(C)NC(=O)c2cccc(C)c2)cc1 (stereo unspecified),–,inactive: 3.96%
CCCNc1c(NS(=O)(=O)c2ccccc2)c(=O)oc2ccccc12,–,inactive: 1.36%
O=C(NC1CCCC1)c1csc2ccccc12,–,inactive: 16.5%
Cc1cc(-c2nn(-c3ccccc3F)cc2CN(C)C(C)c2ccon2)c(C)s1 (stereo unspecified),"inconclusive: 28.2 µM [inhibitor, partial curve, poor fit]",–
CCn1c(N2CCN(Cc3c(F)cccc3Cl)CC2)nc2c1c(=O)[nH]c(=O)n2C,–,inactive: 5.77%

Compound,Potency,"activity change, negative = inhibition"
O=S(=O)(Cc1ccccc1)C(Cl)(Cl)C(F)(F)C(F)(F)C(F)(F)C(F)F,"inconclusive: 2.82 µM [inhibitor, full curve, poor fit]",–
CC(C)(C)C(=O)N1CC[C@@H](CC(=O)O)[C@@H](CC2=NCCc3cc(F)ccc32)C1,"inconclusive: 35.5 µM [inhibitor, single point]",–
COc1ccccc1N1C(=O)CCC1(C)C(=O)NC1CCCC1 (stereo unspecified),–,inactive: 20.1%
NC1CCc2nn(CC(=O)NCCOc3ccccc3)c(=O)n2CC1 (stereo unspecified),–,inactive: 7.24%
COC(=O)c1ccc2c(=O)n(CCc3ccc(S(N)(=O)=O)cc3)c(SCC(=O)C(C)(C)C)nc2c1,"inconclusive: 39.8 µM [inhibitor, single point]",–
CCCCCNC(=O)C(=O)C1C(=O)Nc2ccccc21 (stereo unspecified),"inconclusive: 25.1 µM [inhibitor, partial curve, poor fit]",–
CC(C)c1nc(N2CCN(C(=O)C(=O)NCCO)CC2)c(C#N)c2c1CCCC2,"inconclusive: 28.2 µM [inhibitor, partial curve, poor fit]",–
CCOc1ccc(CN2C(=O)C(=O)c3cccc(C)c32)cc1OC,"inconclusive: 25.1 µM [inhibitor, partial curve, poor fit]",–
Cc1cccc(C)c1NC(=O)CN(C)C(=O)c1nc(-c2ccccc2)oc1C,–,inactive: -5.49%
Cc1oc2cc(OC(=O)c3ccc(S(C)(=O)=O)cc3)ccc2c(=O)c1-c1ccccc1,"inconclusive: 25.1 µM [inhibitor, single point]",–
CCN(CC)c1ccc(N=C2C(=O)Nc3ccccc32)cc1,"inconclusive: 7.94 µM [inhibitor, partial curve, poor fit]",–
CSc1ccc(CNC(=O)c2sc3ncnc(N(C)C4CCCCC4)c3c2C)cc1,"inconclusive: 39.8 µM [inhibitor, single point]",–
Cc1ccc(-n2nc(C)c([C@@H]3C=C[C@@H](NS(=O)(=O)c4cccs4)C3)c2C)cc1Cl,"inconclusive: 20 µM [inhibitor, partial curve, poor fit]",–
Cc1ccc(-c2cnc(CCC(=O)Nc3c(C)cccc3C(C)C)o2)cc1,–,inactive: -27.1%
CCC(C(=O)Nc1sccc1C#N)c1ccccc1 (stereo unspecified),–,inactive: -9.22%
CC1CCC(NC(=O)C23CC4CC(CC(Cl)(C4)C2)C3)CC1 (stereo unspecified),–,inactive: -11.3%
COc1ccc(NC(=O)c2nnn(CC(=O)Nc3cccc(C)c3C)c2N)c(OC)c1,"inconclusive: 7.94 µM [inhibitor, partial curve, poor fit]",–
CCCCc1c(C)[nH]n(-c2nc3ccccc3[nH]2)c1=O,"inconclusive: 39.8 µM [inhibitor, single point]",–
COc1ccc(OC)c(NC(=O)Cn2c(-c3ccc(F)cc3)nc(C)c(CCO)c2=O)c1,active: 20 µM,–
COc1cccc(C2CC(=O)N(c3cccc(C(F)(F)F)c3)C3=C2C(=O)OC3)c1OC (stereo unspecified),–,inactive: -25.3%
Cc1oc(-c2cccs2)nc1C(=O)N1CCCCCC1,"inconclusive: 28.2 µM [inhibitor, partial curve, poor fit]",–
Cc1nn(CC(=O)N2CCCCCC2)c(=O)c2nc(-c3ccccc3)sc12,active: 31.6 µM,–

Compound,Potency,"activity change, negative = inhibition"
COCCN(Cc1cc(OC)c(OC)c(OC)c1)Cc1cc(=O)n2ccc(C)cc2n1,"inconclusive: 31.6 µM [inhibitor, single point]",–
Cc1cc2oc(=O)cc(CN3CCCCC3C)c2cc1C(C)C (stereo unspecified),"inconclusive: 17.8 µM [inhibitor, partial curve, poor fit] and inconclusive: 25.1 µM [inhibitor, single point]",–
COc1ccc(-c2nc3sc(CCNC(=O)C(=O)Nc4cc(F)ccc4F)c(C)n3n2)cc1,–,inactive: -19.7%
CCNC(=O)N1CCC(Oc2ncccc2C(=O)N(C)C)C1 (stereo unspecified),–,inactive: -15.7%
COc1cccc(NC(=O)c2ncoc2-c2ccc(OC)c(OC)c2)c1,"inconclusive: 39.8 µM [inhibitor, single point]",–
CC(NS(=O)(=O)c1cccc2nsnc12)c1ccccc1 (stereo unspecified),–,inactive: 17.8%
Cc1ccc(C(=O)N2CCOC(CN(Cc3ccco3)C(=O)c3ccc(F)cc3)C2)cc1 (stereo unspecified),"inconclusive: 31.6 µM [inhibitor, partial curve, poor fit]",–
CN1CCN(CCOc2ccc3cc(-c4ccccc4)c(=O)oc3c2)CC1,"inconclusive: 28.2 µM [inhibitor, partial curve, poor fit]",–
N#C/C(=C/c1ccc(C#N)cc1)c1nc2ccccc2[nH]1,–,inactive: -30.7%
COc1ccccc1-c1nnc2ccc(SCc3ccco3)nn12,–,inactive: -6.58%
O=C1NCCN2CC3(CCN(C(=O)Nc4ccccc4F)CC3)CC12 (stereo unspecified),"inconclusive: 15.8 µM [inhibitor, single point]",–
CCOC(=O)C1=C(C)N=C2SC=C(CC(=O)N3CCCC3)N2C1c1ccc(Cl)cc1 (stereo unspecified),"inconclusive: 25.1 µM [inhibitor, partial curve, poor fit]",–
NC(=O)C(Sc1ncc(C(F)(F)F)cc1Cl)c1ccc(F)cc1 (stereo unspecified),–,inactive: 3.46%
Cc1c(CN2CCCC(CNC(=O)c3cccc4ccccc34)C2)[nH]c2ccccc12 (stereo unspecified),–,inactive: -29.8%
CC(C)CCNC(=O)c1cc(-c2ccc(Br)s2)nc2ccccc12,"inconclusive: 7.94 µM [inhibitor, partial curve, poor fit]",–
[O-][n+]1ccn(O)c1,–,inactive: -3.43%
COc1ccc(NC(=O)CCc2c(C)c3ccc(O)c(C)c3oc2=O)c(OC)c1,"inconclusive: 28.2 µM [inhibitor, partial curve, poor fit]",–
COc1ccc(CCC(=O)NC(C)C(=O)N2CCN(c3ccccn3)CC2)cc1 (stereo unspecified),"inconclusive: 20 µM [inhibitor, partial curve, poor fit]",–
CNC(=O)c1ccc(CN2C(=O)C(C)=C(c3ccc(C)c(C)c3)S2(=O)=O)cc1,"inconclusive: 28.2 µM [inhibitor, single point]",–
Cc1c(C(=O)NCc2cccc(F)c2)oc2c1-c1[nH]ncc1CC2,"inconclusive: 2.82 µM [inhibitor, partial curve, poor fit]",–
CCOc1ccc(OCC(=O)Nc2ccc3oc(C)nc3c2)cc1,–,inactive: 17.1%
Cc1nn(-c2ccc(C(C)(C)C)cc2)c(C)c1[C@@H]1C=C[C@@H](NC(=O)c2ccco2)C1,active: 31.6 µM,–
